# Measured values from the supplement of paper PMC7826260.
# Some of the results follow. One pool of 16,384 single-stranded DNAs met each Rep nickase domain in vitro for 1 h at 37 °C with 3 µM enzyme; only the middle of the 90-letter strands is printed. Uncut reads are compared with the no-enzyme pool on a log2 scale; the lower, the more was cut; hits are not called. Counts are relative to all reads; values above 0 arise when much of the pool is cut.
# Legend:
# Assay in all cases: uncleaved DNA left, log2 of reads against the no-enzyme library (log2 ratio); higher = less cleavage (more negative = more Rep cleavage of the k-mer); sequences stand for … in CTCGTCCG…ACCGGAGA
# [1] = system: T1, Rep nickase domain of Muscovy duck circovirus
# T1 sequence (residues 1-111, tag not shown): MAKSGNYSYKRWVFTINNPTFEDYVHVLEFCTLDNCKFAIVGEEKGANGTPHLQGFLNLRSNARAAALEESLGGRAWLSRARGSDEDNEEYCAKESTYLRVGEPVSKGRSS
# Description: (§1)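 A pool of 90-nt single-stranded DNAs with seven random bases just before the constant AC of the nick site (name = the seven bases) was cut by 3 µM recombinant His6-SUMO-tagged Rep nickase domain (300 nM DNA, 50 mM HEPES pH 8.0, 50 mM NaCl, 1 mM MnCl2, 1 h, 37 °C, three replicates). Uncut DNA was amplified and sequenced.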
# [2] = system: T2, Rep nickase domain of banana bunchy top virus
# T2 sequence (residues 1-94, tag not shown): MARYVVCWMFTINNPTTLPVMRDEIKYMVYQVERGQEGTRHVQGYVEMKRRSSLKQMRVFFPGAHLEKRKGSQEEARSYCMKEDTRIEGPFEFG
# Description: as §1
# [3] = system: T3, Rep nickase domain of cabbage leaf curl virus
# T3 sequence (residues 1-116, tag not shown): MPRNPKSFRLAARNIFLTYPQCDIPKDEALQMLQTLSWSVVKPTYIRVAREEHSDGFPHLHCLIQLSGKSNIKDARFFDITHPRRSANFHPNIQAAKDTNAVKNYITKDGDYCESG
# Description: as §1
# [4] = system: T4, Rep nickase domain of chickpea chlorotic dwarf virus
# T4 sequence (residues 1-124, tag not shown): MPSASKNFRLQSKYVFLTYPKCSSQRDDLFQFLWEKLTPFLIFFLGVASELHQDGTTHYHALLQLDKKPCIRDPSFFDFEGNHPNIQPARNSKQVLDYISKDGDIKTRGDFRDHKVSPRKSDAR
# Description: as §1
# [5] = system: T5, Rep nickase domain of faba bean necrotic yellows virus
# T5 sequence (residues 1-98, tag not shown): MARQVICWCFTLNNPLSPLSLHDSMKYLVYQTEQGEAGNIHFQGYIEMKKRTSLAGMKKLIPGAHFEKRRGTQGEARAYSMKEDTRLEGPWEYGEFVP
# Description: as §1
# [6] = system: T6, Rep nickase domain of maize striate mosaic virus
# T6 sequence (residues 1-117, tag not shown): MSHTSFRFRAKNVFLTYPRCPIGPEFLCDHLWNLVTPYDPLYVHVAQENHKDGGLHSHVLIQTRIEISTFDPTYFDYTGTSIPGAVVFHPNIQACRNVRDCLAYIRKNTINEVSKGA
# Description: as §1
# [7] = system: T7, Rep nickase domain of porcine circovirus 2
# T7 sequence (residues 2-116, tag not shown): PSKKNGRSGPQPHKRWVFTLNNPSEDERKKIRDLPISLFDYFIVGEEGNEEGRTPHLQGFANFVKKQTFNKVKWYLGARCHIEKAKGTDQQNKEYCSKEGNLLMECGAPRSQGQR
# Description: as §1
# [8] = system: T8, Rep nickase domain of tomato golden mosaic virus
# T8 sequence (residues 1-124, tag not shown): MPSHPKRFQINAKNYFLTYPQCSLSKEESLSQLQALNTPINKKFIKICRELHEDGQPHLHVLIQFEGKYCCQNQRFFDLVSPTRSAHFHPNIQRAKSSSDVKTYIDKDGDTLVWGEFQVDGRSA
# Description: as §1
# [9] = system: T9, Rep nickase domain of tomato yellow leaf curl virus
# T9 sequence (residues 1-136, tag not shown): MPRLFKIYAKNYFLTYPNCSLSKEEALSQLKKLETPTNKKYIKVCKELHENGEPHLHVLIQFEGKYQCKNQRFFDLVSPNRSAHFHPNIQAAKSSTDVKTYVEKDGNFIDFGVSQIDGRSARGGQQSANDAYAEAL
# Description: as §1
# [10] = system: T10, Rep nickase domain of wheat dwarf virus
# T10 sequence (residues 1-137, tag not shown): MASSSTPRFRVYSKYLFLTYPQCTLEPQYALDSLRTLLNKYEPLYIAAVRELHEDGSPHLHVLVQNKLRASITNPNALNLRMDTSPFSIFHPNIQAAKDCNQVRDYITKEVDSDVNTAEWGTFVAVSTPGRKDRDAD
# Description: as §1
Sequence,uncleaved DNA left (log2) [1],uncleaved DNA left (log2) [2],uncleaved DNA left (log2) [3],uncleaved DNA left (log2) [4],uncleaved DNA left (log2) [5],uncleaved DNA left (log2) [6],uncleaved DNA left (log2) [7],uncleaved DNA left (log2) [8],uncleaved DNA left (log2) [9],uncleaved DNA left (log2) [10]
AACTGGT,-0.561,-0.212,0.00634,0.508,-0.0228,1.17,-3.5,-0.0466,0.0572,0.0465
TATACCT,-0.507,-1.13,-0.647,-3.03,0.0161,-0.116,-2.01,-0.221,0.0193,-0.0649
ACAGGGG,0.0344,0.0299,0.309,0.914,0.0506,0.326,0.274,0.138,0.0735,0.00205
AGCCAAA,0.244,0.212,0.377,0.704,0.136,0.329,0.0886,0.181,0.132,0.264
GGGTTAT,-0.0121,0.0854,0.805,1.9,-0.00371,2.23,-0.00894,0.0228,0.0308,0.0594
GCGCTCC,0.0115,-0.0476,0.119,0.369,-0.039,0.711,0.00747,0.00968,-0.0329,-0.11
CACCCAC,-0.134,-0.0457,-0.205,-0.852,-0.272,-0.614,-0.767,-0.255,-0.169,-0.0827
CGCGCCC,-0.111,-0.0459,-0.103,-0.132,-0.144,-0.223,-0.00106,-0.123,-0.164,-0.156
TGTGTTA,-0.167,-0.0877,0.183,0.468,-0.135,1.3,-0.123,-0.0796,-0.0827,-0.0731
AATAAAC,0.0315,-0.0421,-0.0123,-0.433,0.0865,-0.77,0.109,-0.00459,-0.0585,-0.0189
GACCCTG,0.0346,0.0181,0.385,1.17,0.0703,1.3,0.069,0.114,-0.0349,0.0817
TAACTCC,-0.106,-0.0265,-1.01,-2.92,-0.0626,0.259,-0.104,-0.116,-0.112,-0.326
GGTCGGT,0.0409,-0.104,0.549,1.14,-0.021,1.69,0.0829,-0.193,0.021,0.0093
GTTGCGA,0.0791,0.0824,-0.657,0.0957,0.0833,-0.344,0.131,0.0185,0.126,0.0299
